Data published in the antibiotic and cytotoxicity screens of Wong et al. (2023).
This is one part of the list.

Columns and labels:
[1] = system: HSkMC (human skeletal muscle cells); experiment: cytotoxicity call (relative viability < 0.9); settings: 10 µM
[2] = system: HepG2; experiment: cytotoxicity call (relative viability < 0.9); settings: 10 µM
[3] = system: S. aureus RN4220; experiment: growth inhibition call (relative growth <= 0.2); settings: 50 µM

Structure (SMILES)	cytotoxicity call [1]	cytotoxicity call [2]	growth inhibition call [3]
C[C@H](O)C#Cc1ccc2c(c1)O[C@@H](CN(C)C(=O)CN(C)C)[C@@H](C)CN([C@H](C)CO)S2(=O)=O	inactive	inactive	inactive
COc1ccc2c3c([nH]c2c1)[C@H](CO)N(Cc1ccc(cc1)Cl)C[C@]13CCN(CCc2ccccc2)CC1	inactive	active	inactive
CCNC(=O)C[C@@H]1CC[C@H]2[C@@H](COC[C@H](O)CN2C(=O)Nc2c(C)noc2C)O1	inactive	inactive	inactive
CC(C)C[C@H](NC(=O)[C@H](CCCCN)NC(=O)CNC(=O)[C@H](CC(C)C)NC(=O)[C@@H](NC(=O)[C@@H]1CSSC[C@H](N)C(=O)N[C@@H](CO)C(=O)N[C@@H](CC(N)=O)C(=O)N[C@@H](CC(C)C)C(=O)N[C@@H](CO)C(=O)N[C@@H]([C@@H](C)O)C(=O)N1)C(C)C)C(=O)N[C@@H](CO)C(=O)N[C@@H](CCC(N)=O)C(=O)N[C@@H](CCC(=O)O)C(=O)N[C@@H](CC(C)C)C(=O)N[C@@H](Cc1c[nH]cn1)C(=O)N[C@@H](CCCCN)C(=O)N[C@@H](CC(C)C)C(=O)N[C@@H](CCC(N)=O)C(=O)N[C@H](C(=O)N[C@@H](Cc1ccc(O)cc1)C(=O)N1CCC[C@H]1C(=O)N[C@@H](CCCNC(=N)N)C(=O)N[C@H](C(=O)N[C@@H](CC(=O)O)C(=O)N[C@H](C(=O)NCC(=O)N[C@@H](C)C(=O)NCC(=O)N[C@H](C(=O)N1CCC[C@H]1C(N)=O)[C@@H](C)O)C(C)C)[C@@H](C)O)[C@@H](C)O	inactive	inactive	inactive
COc1ccc2c3c([nH]c2c1)[C@H](CO)N(CC1CCCCC1)C[C@]13CCN(CC1)C(=O)Nc1cccc(c1)F	inactive	inactive	inactive
COCC#Cc1ccc2c(c1)O[C@@H](CN(C)C(=O)Nc1ccc(OC)cc1)[C@H](C)CN([C@@H](C)CO)S2(=O)=O	inactive	inactive	inactive
CC(C)NC(=O)Nc1ccc2c(c1)C(=O)N([C@H](C)CO)C[C@H](C)[C@@H](CN(C)Cc1ccc(C(F)(F)F)cc1)OCCCC[C@@H](C)O2	inactive	inactive	inactive
C[C@@H]1CN([C@H](C)CO)C(=O)c2cc(NC(=O)Cc3cn(C)c4ccccc34)ccc2O[C@H]1CN(C)Cc1ccc(C(F)(F)F)cc1	inactive	inactive	inactive
N=C(N)SCCc1cnc[nH]1	inactive	inactive	inactive
C[C@@H]1CN([C@@H](C)CO)C(=O)c2c(c3ccccc3n2C)-c2ccccc2CO[C@H]1CN(C)C(=O)Nc1cccc(F)c1	inactive	inactive	inactive
CCS(=O)(=O)Nc1ccc2c(c1)C(=O)N(C)C[C@H](OC)[C@@H](C)CN(CCC(F)(F)F)[C@H](C)CO2	inactive	inactive	inactive
Cc1c(/C=N/O)sc2ccccc12	inactive	inactive	inactive
C[C@H]1CN([C@@H](C)CO)C(=O)c2cccc(NC(=O)CCCCCC(=O)Nc3ccccc3N)c2O[C@@H]1CN(C)C(=O)Nc1ccccc1	inactive	inactive	inactive
O=C(C[C@@H]1CC[C@H]2[C@@H](COC[C@H](O)CN2C(=O)Nc2ccc(Cl)c(Cl)c2)O1)NCc1ccc(Cl)c(Cl)c1	inactive	inactive	active
OCC1=C[C@@H](O)[C@@H]2C=CO[C@@H](O[C@@H]3O[C@H](CO)[C@@H](O)[C@H](O)[C@H]3O)[C@H]12	inactive	inactive	inactive
C[C@@H]1CCCCO[C@H](CN(C)S(=O)(=O)c2cn(C)cn2)[C@H](C)CN([C@H](C)CO)C(=O)c2cc(NS(C)(=O)=O)ccc2O1	inactive	inactive	inactive
Cc1cc2c(cc1S(N)(=O)=O)S(=O)(=O)CCC2	inactive	inactive	inactive
C[C@@H]1CN([C@H](C)CO)C(=O)c2cc(NC(=O)Nc3ccc4c(c3)OCO4)ccc2O[C@@H](C)CCCCO[C@@H]1CN(C)Cc1ccccc1	inactive	inactive	inactive
COc1ccc(CN(C)C[C@H]2OCCCC[C@@H](C)Oc3ccc(NS(=O)(=O)c4ccc(OC)cc4)cc3C(=O)N([C@@H](C)CO)C[C@@H]2C)cc1	inactive	inactive	inactive
C[C@H]1CN([C@@H](C)CO)S(=O)(=O)c2ccc(C#CC(C)(C)O)cc2O[C@H]1CN(C)Cc1ccc(F)cc1	inactive	inactive	inactive
C[C@H]1CN([C@@H](C)CO)C(=O)CCCn2nncc2CO[C@@H]1CN(C)S(=O)(=O)c1ccc(C#N)cc1	inactive	inactive	inactive
Cc1c(O[C@@H]2O[C@H](COC(=O)C[C@@](C)(O)CC(=O)O)C[C@H](O)[C@H]2O)occc1=O	inactive	inactive	inactive
COc1ccc(NC(=O)N(C)C[C@@H]2OCc3ccccc3-c3c(n(C)c4ccccc34)C(=O)N([C@H](C)CO)C[C@H]2C)cc1	inactive	inactive	inactive
C[C@@H]1CCCCO[C@H](CN(C)Cc2ccc3c(c2)OCO3)[C@@H](C)CN([C@@H](C)CO)C(=O)c2cc(NS(=O)(=O)c3ccc(F)cc3)ccc2O1	inactive	active	inactive
C[C@@H]1CN([C@@H](C)CO)C(=O)Cc2cc(NC(=O)Nc3ccc4c(c3)OCO4)ccc2O[C@H]1CN(C)Cc1ccc(Cl)c(Cl)c1	inactive	active	inactive

Structure (SMILES)	cytotoxicity call [1]	cytotoxicity call [2]	growth inhibition call [3]
COc1ccc(S(=O)(=O)N(C)C[C@H]2Oc3c(NS(=O)(=O)c4cn(C)cn4)cccc3C(=O)N([C@@H](C)CO)C[C@@H]2C)cc1	inactive	inactive	inactive
CO[C@H](CN(C)S(=O)(=O)c1cn(C)cn1)[C@H](C)CN(C(=O)Nc1ccc(C(F)(F)F)cc1)[C@H](C)CO	inactive	inactive	active
COC(=O)c1c(C(=O)OC)c2n(c(=O)c1-c1ccccc1)[C@@H]1c3ccccc3O[C@@](COCc3ccc(OC)cc3)([C@@H]1CO[Si](C)(C)C(C)(C)C)N2C	inactive	inactive	inactive
O=C(CN1CCCN(CC(=O)CN2C(=O)c3ccccc3C2=O)CC1)CN1C(=O)c2ccccc2C1=O	inactive	inactive	inactive
C[C@@H]1CN([C@@H](C)CO)C(=O)Cc2cc(NC(=O)CCC(F)(F)F)ccc2O[C@H]1CN(C)Cc1ccc(Oc2ccccc2)cc1	inactive	active	inactive
Cc1noc(C)c1NC(=O)Nc1cccc2c1O[C@H](CN(C)Cc1ccc(C(F)(F)F)cc1)[C@H](C)CN([C@H](C)CO)C2=O	inactive	inactive	inactive
COCC#Cc1ccc2c(c1)O[C@H](CN(C)C(=O)c1ccccc1)[C@@H](C)CN([C@H](C)CO)S2(=O)=O	inactive	inactive	inactive
Cc1ccc(S(=O)(=O)N(C)C[C@@H]2OCCCC[C@@H](C)Oc3ccc(NC(=O)Nc4ccc(C(F)(F)F)cc4)cc3C(=O)N([C@H](C)CO)C[C@H]2C)cc1	inactive	inactive	inactive
CC(C)(C#N)c1cc(Cn2cncn2)cc(C(C)(C)C#N)c1	inactive	inactive	inactive
CC(C)NC(=O)N(C)C[C@H]1Oc2ncc(-c3ccc(C(=O)N(C)C)cc3)cc2C(=O)N([C@@H](C)CO)C[C@@H]1C	inactive	inactive	inactive
C[C@@H]1CN([C@H](C)CO)C(=O)c2cc(NC(=O)C3CCCCC3)ccc2O[C@@H](C)CCCCO[C@@H]1CN(C)C(=O)CCC(F)(F)F	inactive	inactive	inactive
C[C@H](CO)N1C[C@H](C)[C@@H](CN(C)C(=O)NC2CCCCC2)Oc2c(NC(=O)c3cnccn3)cccc2C1=O	inactive	inactive	inactive
C[C@@H]1CCCCO[C@H](CN(C)Cc2ccc(C(=O)Nc3ccccc3N)cc2)[C@@H](C)CN([C@H](C)CO)C(=O)c2cc(N(C)C)ccc2O1	inactive	inactive	inactive
C[C@@H]1CN([C@H](C)CO)C(=O)c2cccc(NS(=O)(=O)c3ccccc3)c2O[C@@H]1CN(C)C(=O)Nc1cccc2ccccc12	inactive	inactive	inactive
NC(=O)N1CCc2n[nH]c(C(=O)N3CCOCC3)c2C1	inactive	inactive	inactive
C[C@@H]1CCCCO[C@H](CN(C)Cc2ccc3c(c2)OCO3)[C@@H](C)CN([C@@H](C)CO)C(=O)c2cc(NC(=O)Nc3cccc4ccccc34)ccc2O1	inactive	active	inactive
CC(C)OC(=O)c1cn(Cc2c(F)cccc2F)c2sc(-c3ccc(NC(=O)C(C)C)cc3)c(CN(C)Cc3ccccc3)c2c1=O	inactive	active	inactive
C=CC[C@@H](CC(=O)N[C@H](CO)Cc1ccccc1)C(=O)NCCOC(=O)[C@H](CC=C)CC(=O)OC(C)(C)C	inactive	inactive	inactive
CCNC(=O)C[C@@H]1C=C[C@H](NC(=O)C2CC2)[C@H](CO)O1	inactive	inactive	inactive
CCN(CC)CCN(Cc1ccc(-c2ccc(C(F)(F)F)cc2)cc1)C(=O)Cn1c(SCc2ccc(F)cc2)nc(=O)c2c1CCC2	active	active	inactive
C[C@H]1CN([C@@H](C)CO)C(=O)c2cc(NC(=O)CCN3CCOCC3)ccc2O[C@H]1CN(C)S(=O)(=O)c1ccccc1	inactive	inactive	inactive
O=C(C[C@@H]1CC[C@H]2[C@@H](COC[C@H](O)CN2Cc2ccccc2F)O1)N[C@H]1CCN(Cc2ccccc2)C1	inactive	inactive	inactive
CNC(=O)c1ccc(CO)cc1	inactive	inactive	inactive
C[C@H]1CN([C@@H](C)CO)C(=O)c2cc(C#CC3CC3)cnc2O[C@H]1CN(C)S(=O)(=O)c1cccc(F)c1	inactive	inactive	inactive
CC(C)C#Cc1ccc2c(c1)O[C@@H](CN(C)C(=O)c1cccc(F)c1)[C@@H](C)CN([C@H](C)CO)S2(=O)=O	inactive	inactive	inactive
